From US20260256936A1, “BIOACTIVE CONJUGATES, PREPARATION METHOD AND USE THEREOF” (priority 2023, published 2026)

What was measured:
NCI-H358 cells = assay: ADC direct cellular killing, NCI-H358 (B7H3-expressing), 3D plates, 6 days; type: cell-based, human; settings: NCI-H358, 3D
Description: NCI-H358 (ATCC, CRL-5807). NCI-H358 cells are epithelial-like cells isolated from the bronchiole of a patient with bronchioalveolar carcinoma. NCI-H358 was purchased from ATCC. The base medium for NCI-H358 is ATCC-formulated RPMI-1640 Medium, ATCC 30-2001. To make the complete growth medium, fetal bovine serum to a final concentration of 10% (Gibco, 10099-141C) was added to the base medium. The cell line was grown in a humidified 5% CO2 atmosphere at 37° C., and was regularly tested for the presence of mycoplasma with MycoAlert™ PLUS Mycoplasma Detection Kit (Lonza, LT07-710).
ADC direct killing was assessed in NCI-H358, NCI-H1048, and MDA-MB-453 cancer lines. Cells were seeded (2E3/well) into 3D 96-well plates (Corning: 4520), 80 μl/well, and incubated at 37° C., 5% CO2, overnight. Fresh growth medium was added containing varying concentrations of ADCs, 40 μl/well, and incubated at 37° C., 5% CO2, for 6 days. The cell viability was detected by 3D reagent (Promega, G9683), 100 μl/well. The 3D plates were allowed to incubate at room temperature for 30 minutes to stabilize the luminescent signal. The plates were analyzed with a microplate reader.
ADC direct cellular killing data are presented in FIGS. 1-15 and Tables 5-9 for U937, HL60, and TF1 cells. ADC direct cellular killing data are presented in FIGS. 16-21 and Tables 10 and 11 for NCI-H358, NCI-H1048, and MDA-MB-453 cells.

[1] = ADC hydrophobicity evaluation by HIC chromatography (DAR8 peak retention time); type: physicochemical; settings: HIC retention time of DAR8 peak; later RT = more hydrophobic
Description: HIC method: HPLC analysis was carried out under the following measurement conditions: • HPLC system: Waters ACQUITY ARC HPLC System • Detector: measurement wavelength: 280 nm • Column: Tosoh Bioscience 4.6 μm ID×3.5 cm, 2.5 μm butyl-nonporous resin column • Column temperature: 25° C. • Mobile phase A: 1.5 M ammonium sulfate, 50 mM phosphate buffer, pH 7.0 • Mobile phase B: 50 mM phosphate buffer, 25% (V/V) Isopropanol, pH 7.0 • Gradient program: 0% B-0% B (0 min-2 min), 0% B-100% B (2 min-15 min), 100% B-100% B (15 min-16 min), 100% B-0% B (16 min-17 min), 0% B-0% B (17 min-20 min) • Injected sample amount: 20 g
ADC hydrophobicity evaluation: An ADC with a higher hydrophobic property would appear with a later retention time (“RT”) from HIC (hydrophobicity interaction column) chromatography. Results are presented in Tables 2A-2D using the DAR8 peak as a reference.

NCI-H1048 cells = assay: ADC direct cellular killing, NCI-H1048 (B7H3-expressing), 3D plates, 6 days; type: cell-based, human; settings: NCI-H1048, 3D
Description: To make the complete growth medium, fetal bovine serum to a final concentration of 10% (Gibco, 10099-141C) was added to the base medium. The cell line was grown in a humidified 5% CO2 atmosphere at 37° C., and was regularly tested for the presence of mycoplasma with MycoAlert™ PLUS Mycoplasma Detection Kit (Lonza, LT07-710).
The plates were analyzed with a microplate reader.

B1: 3-B (conjugate)
heavy: QVQLVQSGAEVKKPGSSVKVSCKASGYTFTNYVMHWVRQAPGQGLEWMGYINPYNDDVKYNEKFKGRVTITADESTSTAYMELSSLRSEDTAVYYCARWGYYGSPLYYFDYWGQGTLVTVSSASTKGPSVFPLAPSSKSTSGGTAALGCLVKDYFPEPVTVSWNSGALTSGVHTFPAVLQSSGLYSLSSVVTVPSSSLGTQTYICNVNHKPSNTKVDKRV[human IgG1 Fc not printed]
light: EIVLTQSPATLSLSPGERATLSCRASSRLIYMHWYQQKPGQAPRPLIYATSNLASGIPARFSGSGSGTDFTLTISSLEPEDFAVYYCQQWNSNPPTFGQGTKVEIKRTVAAPSVFIFPPSDEQLKSGTASVVCLLNNFYPREAKVQWKVDNALQSGNSQESVTEQDSKDSTYSLSSTLTLSKADYEKHKVYACEVTHQGLSSPVTKSFNRGEC
- Emax (%) (NCI-H358 cells): 81.3%
- DAR8 RT [1]: 14.537 min
- Emax (%) (NCI-H1048 cells): 98.1%
